According to ChEMBL document CHEMBL4888484, “Replenishing the malaria drug discovery pipeline: Screening and hit evaluation of the MMV Hit Generation Library 1 (HGL1) against asexual blood stage Plasmodium falciparum ,using a nano luciferase reporter read-out” (2022):
Among all 150,000 compounds or so, about 540 (0.36%) showed an effect of 50% or more. This is one part of the list.

Each molecule was assayed on Plasmodium falciparum (assay: Primary screen in NF54 nanoGlo assay, in single point, at 2uM, 72h; a lower Z score goes with more inhibition). Conditions: timepoint 72 hour.
Assay type: functional, Erythrocyte

Row | SMILES | % Inhibition | Z score
1 | Cc1nonc1CN[C@@H](C)CN1CCOCC1 | -15% | 2.15
2 | Cc1ccc(NC(=O)CC(=O)N2CCCCCCCC2)c(C)c1 | -7% | 1.33
3 | CCN(Cc1ccc2occc2c1)[C@H]1CCOC(C)(C)C1 | -12% | 2.48
4 | CC(C)(F)C(=O)N1CCN(c2cncc3ccccc23)CC1 | -16% | 1.63
5 | COC(=O)[C@]1(NCc2ccn(C)n2)CCCN(Cc2ccccc2)C1 | -11% | 0.93
6 | CC(C)c1nccc(-c2c(-c3ccccc3)ncn2C[C@H]2CCCO2)n1 | -16% | 2.22
7 | CN(CCO)C(=O)Nc1cc(Cl)cc(Cl)c1 | 4% | -0.53
8 | CCn1c(C)nnc1CN[C@@H](C)c1cc(C)oc1C | -11% | 1.02
9 | Cc1ccc(NC(=O)c2ccccc2-c2nc3ccccc3s2)cc1 | -11% | 1.33
10 | CC1CCCC(C)C1NC(=O)CCc1nc2c([nH]1)c(=O)[nH]c(=O)n2C (stereo not drawn) | 32% | -3.64
11 | CCOC1CC(O)C12CCN(C(=O)NC1Cc3ccccc3C1)CC2 (stereo not drawn) | -6% | 0.59
12 | C[C@H](NC(=O)CN1CCCN(C)CC1)c1nc(-c2ccccn2)no1 | -5% | 0.78
13 | C[C@H]1c2ccsc2CCN1Cc1ccc(-n2ccnc2)cc1 | -8% | 0.75
14 | O=C(Nc1cnc(CC2CC2)nc1)Nc1ccn(C2CCOCC2)n1 | -3% | 0.64
15 | COc1ccc(CN2C[C@H](C(=O)NCc3ccncc3)C3(CCOCC3)C2)cc1 | -4% | 0.74
16 | O=C([C@@H]1CN(S(=O)(=O)c2ccccc2Cl)CCO1)N1CCc2ccc(Cl)cc2C1 | -20% | 2.36
17 | CCC(C)C1NC2(CCN(S(=O)(=O)c3ccc(C)cc3)CC2)N(CCCOC)C1=O (stereo not drawn) | -10% | 0.96
18 | CCOC(=O)c1c(C)c(CCC(=O)NC(C)C)n(CC)c1C | -1% | 0.14
19 | NC1=N[C@H](c2ccccc2)C=C(c2ccccc2)O1 | 33% | -3.73
20 | COC1([C@H](C)NC(=O)c2cc3c(C)cccc3o2)CCOCC1 | -10% | 1.12
21 | CC(C)c1nc(-c2ccc[nH]2)n(Cc2ccc(F)cc2)n1 | -3% | 0.43
22 | CCc1ncsc1C(=O)NC1CCC(S(C)(=O)=O)CC1 (stereo not drawn) | -12% | 1.56
23 | COc1cccc(S(=O)(=O)N2CCC(c3ccc(C)cc3)C2C(=O)O)c1F (stereo not drawn) | -6% | 0.81
24 | CCOc1ccccc1CN(CC)CCn1cncn1 | -3% | 0.63
25 | CC(=O)c1sc(-c2ccc(N3CCCC3)nc2)nc1C | -6% | 1.16
26 | CCN(CC)c1nc(-c2cccc(C)c2)nnc1C | -4% | 0.81
27 | CCOC1CC(N(C)C(=O)C[C@H]2CCCC(=O)N2)C1 (stereo partly drawn) | -3% | 0.34

Row | SMILES | % Inhibition | Z score
28 | Cc1n[nH]cc1C1CCN(c2cc(N3CCCC[C@@H]3CO)ncn2)CC1 | 6% | -1.08
29 | Cn1c(=O)c2c(-c3ccc(Br)cc3)n(-c3cccc4cccnc34)cc2n(C)c1=O | -4% | 0.72
30 | CC(=O)Nc1ccc(C)cc1S(=O)(=O)N1CC=C(c2c(C)n(Cc3ccccc3C)c3ccccc23)CC1 | 92% | -8.31
31 | CNC(=NCCCOc1cccc(OC)c1)NC | 38% | -5.56
32 | Cc1noc(C)c1CN1C(=O)[C@@H]2CC[C@H]1CN(C(=O)c1ccc(CO)o1)C2 | 5% | -0.97
33 | O=S(=O)(c1ccccc1)c1ccc(NCc2ccco2)cc1 | -19% | 3.54
34 | CCc1nnc(CNC(=O)[C@H]2OCC(=O)N(CC)[C@@H]2c2ccccc2)o1 | -2% | 0.23
35 | OC[C@H]1CCCCN1c1cc(NCc2ccc(Cl)cn2)ncn1 | -7% | 1.18
36 | COCCC1(C(=O)NS(=O)(=O)c2cccnc2)CCC1 | 29% | -3.77
37 | CC[C@@H](C)[C@@H]1C(=O)N[C@@H](Cc2c[nH]c3ccccc23)C(=O)N1C | -2% | 0.19
38 | CCCn1nc2c(c(C(F)F)cc(=O)n2S(=O)(=O)c2cc(C)ccc2C)c1C | 34% | -3.8
39 | O=C(NC1CC1)N1CCC[C@H]1C1CCC1 | 17% | -2.16
40 | CN(C)Cc1cccc(C(=O)N2CCC[C@H](c3nccs3)C2)c1 | -6% | 0.93
41 | O=C(NCc1noc([C@@H]2CCCO2)n1)c1ccc(O)cn1 | -9% | 1.09
42 | O=C(CCc1ccncc1)NC1CC(O)(C(F)(F)F)C1 (stereo not drawn) | -2% | 0.3
43 | O=C(Cn1cnc2ccccc2c1=O)Nc1ccncc1 | -6% | 0.69
44 | Cc1c(-c2ccccc2)nn(C)c1NC(=O)c1cccn1C1CC1 | -6% | 0.76
45 | COCCc1noc(CN2C[C@@H]3CC[C@H]2CN(C(=O)c2cccnc2)C3)n1 | -4% | 0.75
46 | CCc1cccc2c1NC(=O)[C@]21[C@@H]2C(=O)N(c3ccc(Cl)cc3)C(=O)[C@@H]2[C@@H]2CCCN21 | 1% | -0.14
47 | O=C(Nc1ccc(N2CCCC2)c2ncccc12)[C@H]1CCOC1 | 15% | -1.88
48 | CCn1nnc(C)c1CNC[C@]1(O)CCCC1(C)C | 0% | 0.04
49 | O=C(NC1CC1)N1CCN(S(=O)(=O)c2ccc(Br)cc2)CC1 | 4% | -0.41
50 | O=C1NC2(CCS(=O)(=O)CC2)C(=O)N1Cc1ccccc1Cl | -16% | 2.94
51 | COc1cccc(CC(=O)Nc2cnns2)c1 | 3% | -0.32
52 | O=C(CN1C(=O)c2cc(Cl)c(Cl)cc2C1=O)N1CCOCC1 | -13% | 1.97
53 | C[C@@H](CNCC1(S(C)(=O)=O)CCOCC1)c1cccc(Cl)c1 | -4% | 0.32
54 | CC(C)(C)c1n[nH]c2c1[C@@H](c1ccnc3ccccc13)CC(=O)N2 | -11% | 1.98
